Here are results for 26 compounds from PubChem BioAssay AID485344 (National Center for Advancing Translational Sciences (NCATS), 2010).

Among all 340,000 compounds or so, about 6,900 (2%) were called active. No stated cut-off is given here; in the data, active means inhibition above about 30%; inactive means below that, where a call was filed. This is a selection; strong and weak results do not stand in their true shares. The source gives no active or inactive call for entries shown without one.

Chain of UniProt P14416 (P14416 whole entry, looked up): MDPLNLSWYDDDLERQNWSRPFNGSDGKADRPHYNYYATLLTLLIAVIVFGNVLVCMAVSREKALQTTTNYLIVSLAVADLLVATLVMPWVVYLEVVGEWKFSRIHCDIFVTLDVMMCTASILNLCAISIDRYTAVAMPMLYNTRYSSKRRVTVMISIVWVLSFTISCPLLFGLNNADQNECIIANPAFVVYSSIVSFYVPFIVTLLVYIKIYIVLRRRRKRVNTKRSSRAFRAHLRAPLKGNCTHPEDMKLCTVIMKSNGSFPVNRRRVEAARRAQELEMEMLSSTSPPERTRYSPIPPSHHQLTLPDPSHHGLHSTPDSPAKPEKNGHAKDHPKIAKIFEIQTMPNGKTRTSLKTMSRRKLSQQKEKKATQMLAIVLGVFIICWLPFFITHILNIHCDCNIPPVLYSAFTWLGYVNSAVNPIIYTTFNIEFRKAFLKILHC

The test concerns the target D(2) dopamine receptor (Homo sapiens) (UniProt P14416). The test is described as follows: HTS Assay for Allosteric Antagonists of the Human D2 Dopamine Receptor: Primary Screen for Antagonists. Further: 0% is about no effect. Conditions: HEK293 TREx D2 cells, calcium flux, dopamine EC80; at 10 µM; stronger effect = higher value. Put shortly:
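Dopamine at EC80 is the agonist stimulus; test compounds precede it by 180 s. Calcium flux read kinetically in a force-coupled, inducible HEK293 T-REx D2 cell line.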
A general note: Calcium assays in cells follow changes in intracellular calcium, usually with a dye or a luminescent sensor.
The inhibition is the relative decrease from the control value, in per cent. As for `CC(=O)N1CCOc2cc(S(=O)(=O)NCc3ccc(F)cc3)c(C)cc21`, the inhibition is -15.2%.

Regarding `O=C(NC1CCCc2ccccc21)c1ccc2c(c1)sc1nc(-c3ccccc3)cn12` (stereo unspecified), the inhibition was determined as 6.51%.

Consider `O=C(Cn1c(=O)n(Cc2ccccc2)c(=O)c2sc3ccccc3c21)Nc1ccccc1F`, for which the inhibition is -14.2%.

In the case of `O=C(Nc1ccc2c(c1)CCCN2C(=O)c1cccs1)c1ccccc1`, the inhibition is -6.31%.

For `CC(C)C1N=C2c3ccccc3N=C(SCC(=O)NCc3ccc(Cl)cc3)N2C1=O` (stereo unspecified), the inhibition came out at 17.8%.

Take `O=C(COc1ccc(F)cc1)NCC(c1ccc(Cl)cc1)N1CCCCC1` (stereo unspecified): the inhibition was 0.804%.

On to `Cc1ccc(CCNC(=O)CCCn2c(=O)c3ccccc3n(Cc3ccccc3C)c2=O)cc1`, for which the inhibition is -6.92%.

Consider `Cn1c(=O)c2ccccc2n(CC(=O)NCCC2=CCCCC2)c1=O`, for which the inhibition was active: 40.9%.

For `COc1ccc(CCNC(=O)Cn2c(=O)n(-c3ccccc3)c(=O)c3c(C)c(C)sc32)cc1OC`, the inhibition was -2.34%.

Turning to `CCN(CC(=O)Nc1c(F)cccc1F)C(=O)c1ccc(N2CCCC2)c([N+](=O)[O-])c1`, the inhibition was active: 31.1%.

As for `CCCCOc1cccc(C(=O)N(Cc2ccc(N(C)C)cc2)C2CCS(=O)(=O)C2)c1` (stereo unspecified), the inhibition was -9.79%.

On to `O=C(Cn1cnc(S(=O)(=O)N2CCCC2)c1)Nc1cccc(Br)c1`, for which the inhibition was found to be 6.5%.

Take `Cc1cc(-c2nc3ncccc3o2)ccc1NC(=O)c1ccccc1Br`: the inhibition is 8.78%.

For `CCc1ccc2ncc(C(=O)c3ccc(C)c(C)c3)c(N3CCC(C(N)=O)CC3)c2c1`, the inhibition turned out to be 17.5%.

For the compound `O=C(CCN1CCN(c2ccccc2)CC1)NNC(=O)Cc1ccc(Br)cc1`, the inhibition was active: 70.4%.

For `O=C(CCNC(=O)N1CC(=O)Nc2ccccc21)Nc1ccc(Br)cc1F`, the inhibition is active: 55.4%.

Turning to `Cc1cccc(N2CCN(Cc3nnc(-c4ccccc4C)o3)CC2C)c1` (stereo unspecified), the inhibition was -10.5%.

Consider `Cc1ccc(Cn2c(CNC(=O)CCc3ccccc3)nc3cccnc32)cc1`, for which the inhibition was determined as 4.76%.

`COc1ccc(C2=Nc3ccc(F)cc3NC(c3cccc(C(F)(F)F)c3)=N2)cc1`: the inhibition was 7.4%.

Take `CCCOc1ccc(C(=O)N(Cc2ccccc2Cl)C2CCS(=O)(=O)C2)cc1` (stereo unspecified): the inhibition was found to be 1.64%.

For the compound `COC(=O)c1ccccc1NC(=O)c1cnc(Nc2ccc(OC)cc2)c2ccccc12`, the inhibition turned out to be 7.06%.

For the compound `CCOc1cc(Br)cc(C2NC(=O)c3c(sc4c3CCN(C)C4)N2)c1O` (stereo unspecified), the inhibition is -15.8%.

As for `COc1ccc(CNC(=O)CSc2ncc3c(n2)-c2ccc(Cl)cc2N(Cc2ccc(F)cc2)S3(=O)=O)cc1OC`, the inhibition was 2.46%.

On to `COCCCNC(=O)CCCn1c(SCC(=O)c2ccc(F)cc2)nc2c(sc3ccccc32)c1=O`, for which the inhibition came to 6.04%.

Take `COc1ccc(-n2cnc3cc(C(=O)NC4CCCC4)ccc32)cc1`: the inhibition is -2.27%.

For the compound `COc1ccc(Cn2c(C(=O)O)c(CNCc3ccco3)c3ccc(OC)cc32)cc1`, the inhibition stood at 7.02%.
